Screen size: about 310,000 compounds; about 14,000 (4.5%) showed an effect of 50% or more. The effect is printed as a negative number. The list shows a part of the results.
biological target: human ether-à-go-go-related gene (hERG) potassium channel (human, UniProt Q12809); test: primary screen, population patch clamp on CHO cells stably expressing hERG
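Further: peak tail current of the secondary pulse compared with the same well before compound.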

Sequence of human ether-à-go-go-related gene (hERG) potassium channel (Q12809 whole entry, looked up): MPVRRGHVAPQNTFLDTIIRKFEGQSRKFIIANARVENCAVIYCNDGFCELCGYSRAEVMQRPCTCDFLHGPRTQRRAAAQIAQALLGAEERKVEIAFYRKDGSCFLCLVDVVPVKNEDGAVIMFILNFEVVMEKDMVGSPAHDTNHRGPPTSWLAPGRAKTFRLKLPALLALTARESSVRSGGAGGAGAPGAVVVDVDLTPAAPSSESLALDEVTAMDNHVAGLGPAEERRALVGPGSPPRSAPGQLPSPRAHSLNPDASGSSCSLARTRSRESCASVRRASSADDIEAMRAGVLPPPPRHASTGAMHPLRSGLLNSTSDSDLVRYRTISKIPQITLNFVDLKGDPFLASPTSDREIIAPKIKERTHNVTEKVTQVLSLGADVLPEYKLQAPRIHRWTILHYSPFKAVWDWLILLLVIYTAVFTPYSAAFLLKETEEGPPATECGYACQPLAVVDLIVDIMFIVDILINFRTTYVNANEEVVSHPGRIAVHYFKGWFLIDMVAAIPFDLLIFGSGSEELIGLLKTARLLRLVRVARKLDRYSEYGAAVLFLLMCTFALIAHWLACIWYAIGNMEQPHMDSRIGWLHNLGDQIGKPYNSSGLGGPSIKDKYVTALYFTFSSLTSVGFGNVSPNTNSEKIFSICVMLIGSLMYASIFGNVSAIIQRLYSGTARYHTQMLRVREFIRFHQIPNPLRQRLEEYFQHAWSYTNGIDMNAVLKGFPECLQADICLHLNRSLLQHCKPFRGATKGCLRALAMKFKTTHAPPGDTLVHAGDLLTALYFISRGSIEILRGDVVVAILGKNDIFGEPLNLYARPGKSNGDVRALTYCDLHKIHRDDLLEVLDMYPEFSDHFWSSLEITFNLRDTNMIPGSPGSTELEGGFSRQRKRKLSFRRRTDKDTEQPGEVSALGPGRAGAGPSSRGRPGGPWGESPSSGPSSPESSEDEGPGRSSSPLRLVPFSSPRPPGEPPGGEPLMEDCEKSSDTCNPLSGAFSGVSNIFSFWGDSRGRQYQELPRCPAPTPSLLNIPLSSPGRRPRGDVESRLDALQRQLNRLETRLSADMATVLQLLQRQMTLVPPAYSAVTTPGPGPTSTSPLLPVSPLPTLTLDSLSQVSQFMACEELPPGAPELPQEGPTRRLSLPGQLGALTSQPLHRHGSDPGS

Compound | hERG current change (%, negative = inhibition) at 10uM [%]
CCCCCCCCCCCCN1[C@@H](CC(=O)O)c2cc(C(F)(F)F)ccc2S1(=O)=O | -6.65
O=C1c2ccccc2C(=O)N1OCCOCCOCCON1C(=O)c2ccccc2C1=O | -29.2
Cc1ccc(C)c(NC(=O)CCN2C(=O)[C@@H]3Cc4ccccc4CN3C2=O)c1 | -5.26
COc1ccc2oc3cc(C)[n+]([O-])c(-c4ccc(C)cc4)c3c2c1 | -6.95
CCNC(=S)N/N=C/c1ccc(C(=O)O)cc1 | 10.3
CC(=O)Nc1ccc(S(=O)(=O)NCCC(=O)OCC(=O)N2CCN(C(=O)c3ccco3)CC2)cc1 | 7.42
O=C(CCc1ccccc1)c1nnc(-c2ccccc2)o1 | -20.7
O=C(CNC(=O)c1ccc2c(c1)OCCO2)N/N=C/c1cccc(Br)c1 | -18.8
COc1cccc(NC(=O)Cc2nnc(SCC(=O)NC(C)c3ccccc3)n2C)c1 (centres unmarked) | 15.1
C=CCOC(=O)C1=C[C@H](C2CCCCC2)[C@@H](CCCO)[C@H](OCC)O1 | -10
Cc1ccc(S(=O)(=O)CC(=O)c2cc(C)c(O)c(C)c2)cc1 | 3.72
Cn1c(N=NC(=O)c2ccccc2)c(O)c2ccccc21 | 8.6
Cl.Oc1ccc(CC2(N3CCCC3)CCCCC2)cc1 | 12.5
CC1CCc2nn(CC(=O)NCCN3CCCCC3C)cc2C1 (centres unmarked) | -14.6
CCCCN(CCCC)CCNC(=O)c1cn(CC)c2ccc(S(=O)(=O)N3CCCC3)cc2c1=O | -65.7
CC(C)CCNC(=O)NC(=O)CSc1ncccn1 | 21.7
Cn1cnnc1SCC(=O)Nc1ccc2c(c1)CCC2 | 4.78
COc1ccc(C/C(N)=N/n2cnnc2)cc1Cl | 17
O=C(NCCC1=CCCCC1)C1CCC(CNS(=O)(=O)c2ccccc2)CC1 (centres unmarked) | 1.26
COc1cccc(NC(=O)NCC2CCN(Cc3ccc(F)cc3)CC2)c1 | -47.4
COc1ccc(S(=O)(=O)NC2CC2)cc1Cl | 13.9
CCOC(=O)CNC(=O)c1ccc(Br)s1 | -9.48
COc1cc(Cl)c(C)cc1NC(=O)CN(C)Cc1cccc(OC)c1OC | -6.16

Compound | hERG current change (%, negative = inhibition) at 10uM [%]
COc1ccc(OC)c(NC(=S)N(CCc2c(C)[nH]c3ccccc23)Cc2cccs2)c1 | -4.4
CC1=C(C(=O)Nc2ccccc2C(=O)NCCCOC(C)C)SCCO1 | 14
Cc1noc(C)c1COc1ccc(C(=O)N2CCN(S(=O)(=O)c3ccc(Cl)cc3)CC2)cc1 | -12.4
O=C(COC(=O)c1cccnc1Cl)Nc1ccc(N2CCCCC2)cc1 | -2.97
Nc1ccc(C(=O)OCC(=O)N2CCN(C(=O)c3ccco3)CC2)cc1[N+](=O)[O-] | -3.64
CCC1(c2ccccc2)NC(=O)N(CC(=O)Nc2ccc(S(N)(=O)=O)cc2)C1=O (centres unmarked) | 10.4
Cc1ccc(S(=O)(=O)NCCC(=O)N2CCCCCC2)cc1 | 1.86
FC(F)(F)c1cc(-c2ccccc2)nc(-n2cc(Cl)cn2)n1 | 9.49
COc1cc(OC)c(OC)cc1CNCC1COc2ccccc2O1.Cl (centres unmarked) | -4.76
CCNc1ccc(C(=O)OC(C(=O)NC(N)=O)C(C)C)cc1[N+](=O)[O-] (centres unmarked) | 11.4
O=C(Nc1ccc2c(c1)oc1ccc(S(=O)(=O)N3CCCC3)cc12)C1CC1 | 7.36
COC(=O)[C@@]1(Cc2ccc(OC)cc2)[C@H]2c3cc(C(=O)N(C)C)[nH]c3C[C@H]2CN1C(=O)c1ccccc1 | -29.8
CCC(C)Oc1nc(C)cc(C)c1S(=O)(=O)c1ccccc1C (centres unmarked) | 4.94
CCc1c(C(=O)Nc2nnc(C3CC3)s2)csc1C | 11
CCc1nc(Nc2cccc(F)c2)c2oc3ccccc3c2n1.Cl | 14.8
CC(C(=O)N1CCc2ccccc21)N1CCN(S(=O)(=O)c2cccc(C(F)(F)F)c2)CC1 (centres unmarked) | 2.4
C(=N\n1cnnc1)/c1ccc(N2CCOCC2)cc1 | -7.98
Cc1cc(Oc2ccccc2)nc(OCC#N)n1 | -8.22
CCC(=O)Nc1cc(=O)[nH]c2ncnn12 | -6.76
CN(Cc1ccccc1)C(=O)C(=O)c1cn(CC(=O)N2CCCC2)c2ccccc12 | 11.2
S=c1[nH]ncn1NCc1cccc(Br)c1 | 12.2
COc1ccc(CN2CCOCCOCCOCC2)cc1 | -58.3
Cc1ccc(NC(=O)c2oc(=O)c3ccccc3c2-c2ccccc2)c(C)c1 | -7.94

Compound | hERG current change (%, negative = inhibition) at 10uM [%]
CC(C)c1ccc(-n2c(O)c(/C=N/NC(=O)c3ccccc3O)c(=O)[nH]c2=S)cc1 | 15.3
O=C(O)c1nn(CC(=O)N2CCN(S(=O)(=O)c3ccc(Cl)cc3)CC2)c(=O)c2ccccc12 | 0.437
COc1cccc(NC(=O)/C=C/c2ccccc2[N+](=O)[O-])c1 | -8.62
COc1cccc(NC(=O)CN2C(=O)COc3ccc(Cl)cc32)c1 | -0.142
C=C(C)C(=O)Nc1cccc(C2=NOC3(C2)C[C@@H](C(N)=O)N(C(=O)c2cc([N+](=O)[O-])cc([N+](=O)[O-])c2)C3)c1 (some centres unmarked) | -0.0222
COc1ccccc1NC(=O)c1cc2n(n1)C(C(F)(F)F)CC(c1ccc3c(c1)OCO3)N2 (centres unmarked) | 15.7
CCOC(=O)c1cc(-c2ccccc2)sc1NC(=O)CCN1C(=O)c2ccccc2C1=O | 13.2
CN=c1oc2ccc(Cl)cc2cc1C(N)=O | -0.583
O=C(O)CC1OCC=C2CN3CCC45c6ccccc6NC4C1C2CC35 (centres unmarked) | 16.7
CCOc1ccccc1NC(=O)COC(=O)c1cnc(C)cn1 | -5.01
O=C(OCCOc1ccccc1F)c1cccc(S(=O)(=O)N2CCOCC2)c1 | 12.9
COc1ccc(NC(=O)/C=C/c2cccc(F)c2)cn1 | -12.7
O=C(Nc1ccc(Cl)c(Cl)c1)c1ccc2c(c1)OCO2 | 18
NC(=S)N/N=C/c1ccc2cccc(OCc3ccccc3)c2n1 | -13.7
Cl.N=C(N)N=Nc1c(O)[nH]c2ccc(Br)cc12 | 1.23
Cc1ccc2c(CC(=O)OCC(=O)N(CC(C)C)c3c(N)n(Cc4ccccc4)c(=O)[nH]c3=O)coc2c1 | -6.94
O=C(O)COCC(=O)NC1CCN(Cc2ccccc2)CC1 | 12.5
Cc1nn(-c2ccccc2)c(C)c1NC(=O)COC(=O)Cc1ccccc1 | 3.73
O=C(NC1CCCCC1)c1cc(N2C(=O)CCC2=O)ccc1Cl | 22
COc1ccc(-c2[nH]c3ccccc3c2SCCN)cc1 | -13.3
CCC(C)(C)C(=O)Nc1ccc(OC)cc1[N+](=O)[O-] | -11.1
O=C(COc1ccc(S(=O)(=O)N2CCCC2)cc1)NCc1ccccn1 | -8.41
CCOc1ccc(OCC)c(S(=O)(=O)NCc2cccnc2)c1 | 3.2

Compound | hERG current change (%, negative = inhibition) at 10uM [%]
O=C(NCCc1ccncc1)C12CC3CC(CC(C3)C1)C2 | -13.3
CSc1nc2c(c(-c3ccccc3)c1C#N)CCC2 | 1.65
ONC(=Nc1ccccc1)C(=Nc1ccccc1)NO | 1.78
CC(C)NC(=O)NC(=O)COC(=O)c1cc[n+]([O-])cc1 | 12.2
Cc1cccc2c1NC(C)CC2C.Cl (centres unmarked) | 8.01
COc1ccc(C(=O)NCC(=O)OCn2nnc3ccccc3c2=O)cc1OC | 13.5
COc1cccc(NCc2nnc(SCC(=O)NC3CCS(=O)(=O)C3)n2C2CCCCC2)c1 (centres unmarked) | 12.7
Cc1ccc(CN2CCN(Cc3ccc4cc(F)ccc4n3)CC2CCO)o1 (centres unmarked) | -30.6
COc1ccc(NC(=O)CCNS(=O)(=O)c2cc(Br)cnc2N)cc1OC | 22.2
O=C(CCn1nnc2ccccc21)OCC(=O)c1ccc([N+](=O)[O-])cc1 | -0.045
Cc1cccc2cc(COC(=O)c3ccccc3)c(=O)[nH]c12 | -0.867
CC(=O)NC(=S)NNC(=O)CCc1ccccc1 | 14.4
O=c1oc(Cl)c(Cl)c2ccccc12 | 11.7
Cc1ccccc1NC(=O)Cc1nc(COC(=O)c2cccc(O)c2)cs1 | -17.7
COc1ccc(NC(=O)N(C2CCCCC2)C(C)c2ccco2)c(OC)c1 (centres unmarked) | 2.86
CCCS(=O)(=O)N1CCc2ccc(NC(=O)c3ccccc3Cl)cc2C1 | -3.06
CCc1ccc(Nc2cnn(-c3nc4ccccc4s3)c(=O)c2Cl)cc1 | 5.54
COC(=O)c1sccc1NS(=O)(=O)c1ccc(F)cc1F | -2.84
COC(=O)C1CCN(c2cc(Cl)nc(N)n2)CC1 | 6.26
CCc1c(-c2ccccc2)nc2ccccc2c1C(=O)N1CCC2(CC1)OCCO2 | 5.59

From article PMC4336329 (PLoS ONE, 2015)
